# Source: the supplement of paper PMC12217912
# The list shows a part of the results. Sequences were assembled here from the parent chain. Values near 0.05 are background.
# B1: TEV protease; numbered along this chain (parent)
# chain: MGESLFKGPRDYNPISSSICHLTNESDGHTTSLYGIGFGPFIITNKHLFRRNNGTLVVQSLHGVFKVKDTTTLQQHLVDGRDMIIIRMPKDFPPFPQKLKFREPQREERICLVTTNFQTKSMSSMVSDTSCTFPSGDGIFWKHWIQTKDGQCGSPLVSTRDGFIVGIHSASNFTNTNNYFTSVPKNFMELLTNQEAQQWVSGWRLNADSVLWGGHKVFMVKPEEPFQPVKEATQL
# Variants of: B1
# Test: raw area under fraction-flipped curve 0-4 h after induction (AUC4h, not background-subtracted), DNA-recorder readout of cleavage of the substrate (dimensionless); higher = more cleavage of the substrate by the protease variant
# Conditions: temperature: 34 °C; time window: 0-4 h after rhamnose induction
# Protocol: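 In vivo DNA recorder in E. coli TOP10(DE3) ΔrhaA at 34 °C. Each TEVp single-site mutant (parent TEVp 0) is paired with a single-site variant of the 7-mer TEVs (canonical ENLYFQ|S). The substrate sits between flexible linkers in a Bxb1-sfGFP-TEVs-SsrA fusion, so cleavage stabilises Bxb1 and speeds flipping of a recombination array, read by NGS. The value is the raw area under the fraction-flipped curve over 0-4 h after rhamnose induction (AUC4h), with ≥20 reads per time point. It is not background-subtracted; inactive controls average about 0.047.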
# 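Note: Bxb1 expression induced with 0.2% (w/v) L-rhamnose at OD600 near 0.5, cultures sampled hourly, flipped fraction per protease–substrate barcode pair counted by paired-end Illumina sequencing.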
variant,measurement,value
MGESLFKGPRDYNPISSSICHLTNESDGHTTSLYGIGFGPFIITNKHLFRRNNGTLVVQSLHGVFKVKDTTTLQQHLVDGRDMIIIRMPKDFPPFPQKLKFREEQREERICLVTTNFQTKSMSSMVSDTSCTFPSGDGIFWKHWIQTKDGQCGSPLVSTRDGFIVGIHSASNFTNTNNYFTSVPKNFMELLTNQEAQQWVSGWRLNADSVLWGGHKVFMVKPEEPFQPVKEATQL [P104E],area with substrate ENLYFQA,0.0525
same,area with substrate ENLYFQC,0.0508
same,area with substrate ENLYFQD,0.0574
same,area with substrate ENLYFQE,0.0427
same,area with substrate ENLYFQG,0.043
same,area with substrate ENLYFQH,0.0524
same,area with substrate ENLYFQI,0.0428
same,area with substrate ENLYFQK,0.0473
same,area with substrate ENLYFQL,0.0534
same,area with substrate ENLYFQN,0.0483
same,area with substrate ENLYFQP,0.0605
same,area with substrate ENLYFQR,0.0704
same,area with substrate ENLYFQS,0.0521
same,area with substrate ENLYFQW,0.0421
MGESLFKGPRDYNPISSSICHLTNESDGHTTSLYGIGFGPFIITNKHLFRRNNGTLVVQSLHGVFKVKDTTTLQQHLVDGRDMIIIRMPKDFPPFPQYLKFREPQREERICLVTTNFQTKSMSSMVSDTSCTFPSGDGIFWKHWIQTKDGQCGSPLVSTRDGFIVGIHSASNFTNTNNYFTSVPKNFMELLTNQEAQQWVSGWRLNADSVLWGGHKVFMVKPEEPFQPVKEATQL [K98Y],area with substrate ENLYFQA,0.121
same,area with substrate ENLYFQC,0.147
same,area with substrate ENLYFQD,0.106
same,area with substrate ENLYFQF,0.0875
same,area with substrate ENLYFQG,0.106
same,area with substrate ENLYFQH,0.0795
same,area with substrate ENLYFQI,0.0619
same,area with substrate ENLYFQK,0.0583
same,area with substrate ENLYFQL,0.0672
same,area with substrate ENLYFQM,0.114
same,area with substrate ENLYFQN,0.0893
same,area with substrate ENLYFQQ,0.0721
same,area with substrate ENLYFQR,0.0542
same,area with substrate ENLYFQS,0.103
same,area with substrate ENLYFQT,0.0595
same,area with substrate ENLYFQW,0.0607
MGESLFKGPRDYNPISSSICHLTNESDGHTTSLYGIGFGPFIITNKHLFRRNNGTLVVQSLHGVFKVKDTTTLQQHLVDGRDMIIIRMPKDFPPFPQKLKFREPHREERICLVTTNFQTKSMSSMVSDTSCTFPSGDGIFWKHWIQTKDGQCGSPLVSTRDGFIVGIHSASNFTNTNNYFTSVPKNFMELLTNQEAQQWVSGWRLNADSVLWGGHKVFMVKPEEPFQPVKEATQL [Q105H],area with substrate ENLYFQA,0.0834
same,area with substrate ENLYFQC,0.132
same,area with substrate ENLYFQD,0.066
same,area with substrate ENLYFQG,0.0898
same,area with substrate ENLYFQI,0.171
same,area with substrate ENLYFQK,0.0617
same,area with substrate ENLYFQL,0.0602
same,area with substrate ENLYFQM,0.102
same,area with substrate ENLYFQN,0.0518
same,area with substrate ENLYFQR,0.0745
same,area with substrate ENLYFQS,0.107
same,area with substrate ENLYFQV,0.0624
same,area with substrate ENLYFQW,0.0686
same,area with substrate ENLYFQY,0.0913
MGESLFKGPRDYNPISSSICHLTNESDGHTTSLYGIGFGPFIITNKHLFRRNNGTLVVQSLHGVFKVKDTTTLQQHLVDGRDMIIIRMPKDFPPFPQKLKFREPQREHRICLVTTNFQTKSMSSMVSDTSCTFPSGDGIFWKHWIQTKDGQCGSPLVSTRDGFIVGIHSASNFTNTNNYFTSVPKNFMELLTNQEAQQWVSGWRLNADSVLWGGHKVFMVKPEEPFQPVKEATQL [E108H],area with substrate ENLYFQA,0.07
same,area with substrate ENLYFQC,0.077
same,area with substrate ENLYFQD,0.0629
same,area with substrate ENLYFQG,0.0717
same,area with substrate ENLYFQI,0.0651
same,area with substrate ENLYFQK,0.0456
same,area with substrate ENLYFQL,0.0499
same,area with substrate ENLYFQM,0.0622
same,area with substrate ENLYFQN,0.0542
same,area with substrate ENLYFQQ,0.0662
same,area with substrate ENLYFQR,0.0565
same,area with substrate ENLYFQS,0.0681
same,area with substrate ENLYFQT,0.0555
same,area with substrate ENLYFQW,0.0694
MGESLFKGPRDYNPISSSICHLTNESDGHTTSLYGIGFGPFIITNKHLFRRNNGTLVVQSLHGVFKVKDTTTLQQHLVDGRDMIIIRMPKDFPPFPQKLMFREPQREERICLVTTNFQTKSMSSMVSDTSCTFPSGDGIFWKHWIQTKDGQCGSPLVSTRDGFIVGIHSASNFTNTNNYFTSVPKNFMELLTNQEAQQWVSGWRLNADSVLWGGHKVFMVKPEEPFQPVKEATQL [K100M],area with substrate ENLYFQA,0.151
same,area with substrate ENLYFQC,0.127
same,area with substrate ENLYFQG,0.0899
same,area with substrate ENLYFQK,0.0526
same,area with substrate ENLYFQP,0.0428
same,area with substrate ENLYFQS,0.111
MGESLFKGPRDYNPISSSICHLTNESDGHTTSLYGIGFGPFIITNKHLFRRNNGTLVVQSLHGVFKVKDTTTLQQHLVDGRDMIIIRMPKDFPPFPQKLKFREPQRCERICLVTTNFQTKSMSSMVSDTSCTFPSGDGIFWKHWIQTKDGQCGSPLVSTRDGFIVGIHSASNFTNTNNYFTSVPKNFMELLTNQEAQQWVSGWRLNADSVLWGGHKVFMVKPEEPFQPVKEATQL [E107C],area with substrate ENLYFQA,0.0959
same,area with substrate ENLYFQL,0.0536
same,area with substrate ENLYFQN,0.0948
same,area with substrate ENLYFQS,0.098
same,area with substrate ENLYFQT,0.0529
same,area with substrate ENLYFQV,0.057
MGESLFKGPRDYNPISSSICHLTNESDGHTTSLYGIGFGPFIITNKHLFRRNNGTLVVQSLHGVFKVKDTTTLQQHLVDGRDMIIIRMPKDFPPFPQKLKTREPQREERICLVTTNFQTKSMSSMVSDTSCTFPSGDGIFWKHWIQTKDGQCGSPLVSTRDGFIVGIHSASNFTNTNNYFTSVPKNFMELLTNQEAQQWVSGWRLNADSVLWGGHKVFMVKPEEPFQPVKEATQL [F101T],area with substrate ENLYFQA,0.0552
same,area with substrate ENLYFQC,0.0776
same,area with substrate ENLYFQH,0.0544
same,area with substrate ENLYFQI,0.0394
same,area with substrate ENLYFQK,0.0874
same,area with substrate ENLYFQL,0.0503
same,area with substrate ENLYFQM,0.0522
same,area with substrate ENLYFQN,0.0442
same,area with substrate ENLYFQR,0.0376
same,area with substrate ENLYFQS,0.0579
same,area with substrate ENLYFQT,0.0507
same,area with substrate ENLYFQV,0.0604
MGESLFKGPRDYNPISSSICHLTNESDGHTTSLYGIGFGPFIITNKHLFRRNNGTLVVQSLHGVFKVKDTTTLQQHLVDGRDMIIIRMPKDFPPTPQKLKFREPQREERICLVTTNFQTKSMSSMVSDTSCTFPSGDGIFWKHWIQTKDGQCGSPLVSTRDGFIVGIHSASNFTNTNNYFTSVPKNFMELLTNQEAQQWVSGWRLNADSVLWGGHKVFMVKPEEPFQPVKEATQL [F95T],area with substrate ENLYFQA,0.0846
same,area with substrate ENLYFQC,0.0752
same,area with substrate ENLYFQM,0.0562
same,area with substrate ENLYFQN,0.0347
same,area with substrate ENLYFQR,0.0526
same,area with substrate ENLYFQS,0.0809
same,area with substrate ENLYFQT,0.0396
MGESLFKGPRDYNPISSSICHLTNESDGHTTSLYGIGFGPFIITNKHLFRRNNGTLVVQSLHGVFKVKDTTTLQQHLVDGRDMIIIRMPKDFPPFPQKLKFKEPQREERICLVTTNFQTKSMSSMVSDTSCTFPSGDGIFWKHWIQTKDGQCGSPLVSTRDGFIVGIHSASNFTNTNNYFTSVPKNFMELLTNQEAQQWVSGWRLNADSVLWGGHKVFMVKPEEPFQPVKEATQL [R102K],area with substrate ENLYFQA,0.104
same,area with substrate ENLYFQC,0.134
same,area with substrate ENLYFQE,0.0306
same,area with substrate ENLYFQI,0.0632
same,area with substrate ENLYFQK,0.0902
same,area with substrate ENLYFQL,0.0623
same,area with substrate ENLYFQM,0.085
same,area with substrate ENLYFQP,0.0662
same,area with substrate ENLYFQQ,0.0812
same,area with substrate ENLYFQR,0.0491
same,area with substrate ENLYFQS,0.113
same,area with substrate ENLYFQT,0.0652
same,area with substrate ENLYFQW,0.0639
same,area with substrate ENLYFQY,0.073
MGESLFKGPRDYNPISSSICHLTNESDGHTTSLYGIGFGPFIITNKHLFRRNNGTLVVQSLHGVFKVKDTTTLQQHLVDGRDMIIIRMPKDFPPFPFKLKFREPQREERICLVTTNFQTKSMSSMVSDTSCTFPSGDGIFWKHWIQTKDGQCGSPLVSTRDGFIVGIHSASNFTNTNNYFTSVPKNFMELLTNQEAQQWVSGWRLNADSVLWGGHKVFMVKPEEPFQPVKEATQL [Q97F],area with substrate ENLYFQA,0.0832
same,area with substrate ENLYFQC,0.0723
same,area with substrate ENLYFQF,0.0912
same,area with substrate ENLYFQG,0.0922
same,area with substrate ENLYFQI,0.0705
same,area with substrate ENLYFQM,0.0824
same,area with substrate ENLYFQR,0.0631
same,area with substrate ENLYFQS,0.0927
same,area with substrate ENLYFQT,0.0351
same,area with substrate ENLYFQY,0.0637
